# Experimental data published in the supplement of paper PMC8728848.
# The other results are listed elsewhere or left out.
# B1: GS13455A-bfa-343-25-343 (Bacteroides fragilis) (protein)
# chain: KDEIQIVDQDTSWQMDNKYIEEDIREQLGIDPFTDLVYLGYYGNPYTQLEAINDLVNTTLVGKNELSFKVKVTKPYKEDIKVNLMKEDKLVTDFPEMAEGIPLFPSENCTFEGGVLKAGELETTVKLTLKDVEKLNNLSGYVMAIKLTMEGSHEHLAIARTRSSYFVKLNLSIRLDNIDSSNKKIEGKGFNKEISFKSDIRPDKLGSLNDGNFTANNWYTSNANNYLTIILPEKQSLKGFRLDTNTSPSGSYMLKSCRVMVETPDGNWVNHGVFDRKSMDGIAYISFKKPVECTKVRFENMMAFNGRFSVDVNEVTAFR
# Columns and labels:
# Test in all cases: glycan array binding signal (z-score within array); higher = stronger binding
# Settings in all cases: glycan notation: IUPAC condensed, linker removed
# [1] = target: GlcNAc(b1-3)Gal(b1-4)Glc
# Outline: (§1)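 The Consortium for Functional Glycomics database supplied 3228 glycan arrays, of which those lacking an available protein sequence were dropped. The binding signal, a within-array Z-score, was averaged across arrays of the same protein sequence and across linkers. Negative scores can be read as non-binding.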
# [2] = target: GlcNAc(b1-3)Gal(b1-4)GlcNAc
# Outline: as §1
# [3] = target: GlcNAc(b1-3)Gal(b1-4)GlcNAc(b1-2)Man(a1-3)[GlcNAc(b1-3)Gal(b1-4)GlcNAc(b1-2)Man(a1-6)]Man(b1-4)GlcNAc(b1-4)GlcNAc
# Outline: as §1
# [4] = target: GlcNAc(b1-3)Gal(b1-4)GlcNAc(b1-2)Man(a1-3)[GlcNAc(b1-3)Gal(b1-4)GlcNAc(b1-2)Man(a1-6)]Man(b1-4)GlcNAc(b1-4)[Fuc(a1-6)]GlcNAc
# Outline: as §1
# [5] = target: GlcNAc(b1-3)Gal(b1-4)GlcNAc(b1-2)[GlcNAc(b1-3)Gal(b1-4)GlcNAc(b1-6)]Man(a1-6)[GlcNAc(b1-3)Gal(b1-4)GlcNAc(b1-2)Man(a1-3)]Man(b1-4)GlcNAc(b1-4)GlcNAc
# Outline: as §1
# [6] = target: GlcNAc(b1-3)Gal(b1-4)GlcNAc(b1-3)Gal(b1-4)GlcNAc
# Outline: as §1
# [7] = target: GlcNAc(b1-3)Gal(b1-4)GlcNAc(b1-3)Gal(b1-4)GlcNAc(b1-2)Man(a1-3)[GlcNAc(b1-3)Gal(b1-4)GlcNAc(b1-3)Gal(b1-4)GlcNAc(b1-2)Man(a1-6)]Man(b1-4)GlcNAc(b1-4)GlcNAc
# Outline: as §1
# [8] = target: GlcNAc(b1-3)Gal(b1-4)GlcNAc(b1-3)Gal(b1-4)GlcNAc(b1-2)Man(a1-3)[GlcNAc(b1-3)Gal(b1-4)GlcNAc(b1-3)Gal(b1-4)GlcNAc(b1-2)Man(a1-6)]Man(b1-4)GlcNAc(b1-4)[Fuc(a1-6)]GlcNAc
# Outline: as §1
# [9] = target: GlcNAc(b1-3)Gal(b1-4)GlcNAc(b1-3)Gal(b1-4)GlcNAc(b1-2)[GlcNAc(b1-3)Gal(b1-4)GlcNAc(b1-3)Gal(b1-4)GlcNAc(b1-6)]Man(a1-6)[GlcNAc(b1-3)Gal(b1-4)GlcNAc(b1-3)Gal(b1-4)GlcNAc(b1-2)Man(a1-3)]Man(b1-4)GlcNAc(b1-4)[Fuc(a1-6)]GlcNAc
# Outline: as §1
# [10] = target: GlcNAc(b1-3)Gal(b1-4)GlcNAc(b1-3)Gal(b1-4)GlcNAc(b1-3)Gal(b1-4)GlcNAc(b1-2)Man(a1-3)[GlcNAc(b1-3)Gal(b1-4)GlcNAc(b1-3)Gal(b1-4)GlcNAc(b1-3)Gal(b1-4)GlcNAc(b1-2)Man(a1-6)]Man(b1-4)GlcNAc(b1-4)GlcNAc
# Outline: as §1
# [11] = target: GlcNAc(b1-3)Gal(b1-4)GlcNAc(b1-3)Gal(b1-4)GlcNAc(b1-3)Gal(b1-4)GlcNAc(b1-2)Man(a1-3)[GlcNAc(b1-3)Gal(b1-4)GlcNAc(b1-3)Gal(b1-4)GlcNAc(b1-3)Gal(b1-4)GlcNAc(b1-2)Man(a1-6)]Man(b1-4)GlcNAc(b1-4)[Fuc(a1-6)]GlcNAc
# Outline: as §1
# [12] = target: GlcNAc(b1-3)Gal(b1-4)GlcNAc(b1-3)Gal(b1-4)GlcNAc(b1-3)Gal(b1-4)GlcNAc(b1-2)[GlcNAc(b1-3)Gal(b1-4)GlcNAc(b1-3)Gal(b1-4)GlcNAc(b1-3)Gal(b1-4)GlcNAc(b1-6)]Man(a1-6)[GlcNAc(b1-3)Gal(b1-4)GlcNAc(b1-3)Gal(b1-4)GlcNAc(b1-3)Gal(b1-4)GlcNAc(b1-2)Man(a1-3)]Man(b1-4)GlcNAc(b1-4)[Fuc(a1-6)]GlcNAc
# Outline: as §1
# [13] = target: GlcNAc(b1-3)Gal(b1-4)GlcNAc(b1-3)Gal(b1-4)GlcNAc(b1-3)Gal(b1-4)GlcNAc(b1-3)Gal(b1-4)GlcNAc(b1-2)Man(a1-3)[GlcNAc(b1-3)Gal(b1-4)GlcNAc(b1-3)Gal(b1-4)GlcNAc(b1-3)Gal(b1-4)GlcNAc(b1-3)Gal(b1-4)GlcNAc(b1-2)Man(a1-6)]Man(b1-4)GlcNAc(b1-4)GlcNAc
# Outline: as §1
# [14] = target: GlcNAc(b1-3)Gal(b1-4)GlcNAc(b1-3)Gal(b1-4)GlcNAc(b1-3)Gal(b1-4)GlcNAc(b1-3)Gal(b1-4)GlcNAc(b1-2)Man(a1-3)[GlcNAc(b1-3)Gal(b1-4)GlcNAc(b1-3)Gal(b1-4)GlcNAc(b1-3)Gal(b1-4)GlcNAc(b1-3)Gal(b1-4)GlcNAc(b1-2)Man(a1-6)]Man(b1-4)GlcNAc(b1-4)[Fuc(a1-6)]GlcNAc
# Outline: as §1
# [15] = target: GlcNAc(b1-3)Gal(b1-4)GlcNAc(b1-3)Gal(b1-4)GlcNAc(b1-3)Gal(b1-4)GlcNAc(b1-3)Gal(b1-4)GlcNAc(b1-2)[GlcNAc(b1-3)Gal(b1-4)GlcNAc(b1-3)Gal(b1-4)GlcNAc(b1-3)Gal(b1-4)GlcNAc(b1-3)Gal(b1-4)GlcNAc(b1-6)]Man(a1-6)[GlcNAc(b1-3)Gal(b1-4)GlcNAc(b1-3)Gal(b1-4)GlcNAc(b1-3)Gal(b1-4)GlcNAc(b1-3)Gal(b1-4)GlcNAc(b1-2)Man(a1-3)]Man(b1-4)GlcNAc(b1-4)[Fuc(a1-6)]GlcNAc
# Outline: as §1
# [16] = target: GlcNAc(b1-3)Gal(b1-4)GlcNAc(b1-3)Gal(b1-4)GlcNAc(b1-3)GalNAc
# Outline: as §1
# [17] = target: GlcNAc(b1-3)Gal(b1-4)GlcNAc(b1-3)GalNAc
# Outline: as §1
# [18] = target: GlcNAc(b1-3)Gal(b1-4)GlcNAc(b1-3)[GlcNAc(b1-3)Gal(b1-4)GlcNAc(b1-3)]GalNAc
# Outline: as §1
# [19] = target: GlcNAc(b1-3)Gal(b1-4)GlcNAc(b1-6)[Gal(b1-3)]GalNAc
# Outline: as §1
# [20] = target: GlcNAc(b1-3)Gal(b1-4)GlcNAc(b1-6)[GlcNAc(b1-3)Gal(b1-3)]GalNAc
# Outline: as §1
# [21] = target: GlcNAc(b1-3)Gal(b1-4)GlcNAc(b1-6)[GlcNAc(b1-3)]Gal(b1-4)GlcNAc
# Outline: as §1
# [22] = target: GlcNAc(b1-3)GalNAc
# Outline: as §1
binder,measurement,setting,value
B1,glycan array binding signal (z-score),[1],0.295
same,glycan array binding signal (z-score),[2],0.36
same,glycan array binding signal (z-score),[3],0.549
same,glycan array binding signal (z-score),[4],0.601
same,glycan array binding signal (z-score),[5],-0.6
same,glycan array binding signal (z-score),[6],-0.86
same,glycan array binding signal (z-score),[7],0.769
same,glycan array binding signal (z-score),[8],1.01
same,glycan array binding signal (z-score),[9],-0.352
same,glycan array binding signal (z-score),[10],0.209
same,glycan array binding signal (z-score),[11],0.311
same,glycan array binding signal (z-score),[12],0.758
same,glycan array binding signal (z-score),[13],-0.258
same,glycan array binding signal (z-score),[14],-0.458
same,glycan array binding signal (z-score),[15],-0.332
same,glycan array binding signal (z-score),[16],-0.212
same,glycan array binding signal (z-score),[17],-0.438
same,glycan array binding signal (z-score),[18],-0.419
same,glycan array binding signal (z-score),[19],-0.194
same,glycan array binding signal (z-score),[20],0.114
same,glycan array binding signal (z-score),[21],0.674
same,glycan array binding signal (z-score),[22],-0.658
